# Out of some 94,000 compounds screened, about 20 (0.02%) were called active. Inconclusive means that the source gave no clear call. Such entries were picked first, then a sample of the others. Calls follow the shape of the dose curve; as a rule, active = well fitted activation curve with a large enough effect; inconclusive = small, poorly fitted or top-dose-only effect; inactive = flat fitted curve, though single readings scatter. Potencies of inconclusive entries are left out as doubtful fits.
# Assay: qHTS of alpha-syn Inhibitors: NCGC Sytravon Library Screen; as to growth rescue (activation): 0% is about no effect
# Details: S. cerevisiae alpha-synuclein toxicity rescue, BacTiter-Glo growth, 24 h; growth rescue (activation): at 46.1 µM (top of the series)
# How it was run: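 Growth restoration measured by BacTiter-Glo luminescence after 24 hr at 30 deg C; alpha-synuclein yeast, raffinose-pregrown to mid-log, were added at OD600=0.02 in galactose medium onto pinned compounds.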
# Potency is read from the fitted curve at half-maximal effect; tags tell the direction and shape of the fitted curve.
SMILES,growth rescue (activation),Potency
Cc1ccc(C(=O)c2oc3ccccc3c2NC(=O)COc2ccccc2Cl)cc1,inactive: 5.07%,–
O=C(c1cc2ccc3cccnc3c2[nH]1)N1CCN(c2ccc(Cl)cc2)CC1,–,"inconclusive [activator, single point]"
Cc1ccc(C)c(N2CCN(CCCNC(=O)c3ccc4nc(N5CCCCC5)sc4c3)CC2)c1,inactive: -18.9%,–
O=C(O)Cc1csc(-c2cccc(Oc3ccccc3)c2)n1,–,inactive
O=c1c2sc3ccccc3c2n(Cc2cccc(C(F)(F)F)c2)c(=O)n1Cc1ccc(F)cc1,inactive: -12.5%,–
CC(=O)N1CC2(CC(c3ccccc3C(F)(F)F)=NO2)CN1c1ccc(Cl)cc1 (stereo unspecified),inconclusive: 36.3% [activator],–
CCOc1ccc(-c2noc(CSc3nnc(Cc4ccccc4)n3-c3ccc(F)cc3)n2)cc1,–,"inconclusive [activator, single point]"
Cc1ccc(C(=O)c2sc(Nc3ccc(F)cc3)nc2N)c(C)c1,inactive: 1.02%,–
O=C(NCC(F)(F)F)c1ccc(S(=O)(=O)NCCc2ccc3c(c2)OCCO3)cc1,inactive: 12%,–
CCOP(=O)(OCC)/C(C#N)=C/c1ccc([N+](=O)[O-])cc1,inconclusive: 38.6% [activator],–
CC(C)(C)c1ccc(-c2nc(S(=O)(=O)c3ccccc3)c(N3CCOCC3)o2)cc1,–,"inconclusive [activator, partial curve, poor fit]"
Cn1c2nc3ccccc3c-2nc2ccccc21,inconclusive: 79% [activator],–
CC(NCC(=O)Nc1ccccc1C(=O)NC1CC1)c1ccco1 (stereo unspecified),inactive: 12.1%,–
COc1ccc(NC(=O)C(NC(=O)/C=C\c2ccc3c(c2)OCO3)c2ccc(OC)cc2)cc1 (stereo unspecified),inactive: -11.4%,–
O=C(CC1N=C2c3ccccc3N=C(SCc3ccccc3Cl)N2C1=O)NCc1cccs1 (stereo unspecified),inactive: 3.44%,–
Cc1c(Cl)cccc1NC(=O)C(=O)NCC(c1cccnc1)N1CCN(c2ccccc2)CC1 (stereo unspecified),–,"inconclusive [activator, single point]"
O=C(CCSCc1ccccc1Cl)N1CCN(c2ccc(F)cc2)CC1,–,"inconclusive [activator, single point]"
CSc1cccc(NC(=O)CC(c2ccc(F)cc2)N2Cc3ccccc3C2=O)c1 (stereo unspecified),inactive: -9.32%,–
CCC(C(=O)N(C)Cc1ccccc1)n1nc(C)c2sc3ccccc3c2c1=O (stereo unspecified),–,"inconclusive [activator, single point]"
COc1cc(OC)c(NC(=O)CN(C)S(=O)(=O)c2ccc3c(c2)CCCC(=O)N3)cc1Cl,inactive: 0.85%,–
COc1cc2c(cc1N)-c1ccc(N)cc1C2=O,inconclusive: 54.3% [activator],–
COc1ccc2c(Sc3ccccc3)c(C(=O)N3CCC(C)CC3)[nH]c2c1,–,"inconclusive [activator, single point]"
Cc1cccn2c(=O)cc(COc3ccc(NC(=O)C(C)Oc4ccccc4)cc3)nc12 (stereo unspecified),–,"inconclusive [activator, single point]"

SMILES,growth rescue (activation),Potency
Cc1ccc(CSCCC(=O)N2CCN(c3cc(C)ccc3C)CC2)cc1,–,"inconclusive [activator, single point]"
O=C(CSCc1ccc(F)cc1)N1CCc2c([nH]c3ccccc23)C1c1ccccc1 (stereo unspecified),–,"inconclusive [activator, single point]"
CN(C)c1ccc(NC(=O)C2(c3cccs3)CCOCC2)cc1,inactive: 3.77%,–
CCC(=O)C1=C(c2ccccc2)N(C(=O)CC)n2c(nnc2C2CCCCC2)S1,–,"inconclusive [activator, single point]"
Cc1ccc(CNC(=O)c2ccc(CSCc3c(F)cccc3Cl)o2)cc1,–,"inconclusive [activator, single point]"
Cc1ccc2nc(N(Cc3cccnc3)C(=O)CCc3ccccc3)sc2c1,–,"inconclusive [activator, single point]"
O=C(NCc1ccccc1)c1ccc2c(c1)sc1nc(-c3ccc(F)cc3)cn12,inactive: -12.7%,–
Cc1cc(C)c(C)c(S(=O)(=O)N2CCN(c3ccc(O)cc3)CC2)c1C,inconclusive: 127% [activator],–
Cc1cccc2sc(N(Cc3cccnc3)C(=O)Cc3ccccc3)nc12,–,active: 10 µM
COc1ccc(CNc2oc(COc3cccc(C)c3)nc2C#N)cc1,–,"inconclusive [activator, single point]"
COc1ccc(CCC(=O)NCc2nc3cccnc3n2Cc2ccc(C)cc2)cc1,inactive: -1.74%,–
COc1ccc(C(=O)COC(=O)CNC(=O)c2cccs2)cc1Br,inactive: 13.6%,–
CCc1ccc(NS(=O)(=O)c2cccc3nonc23)cc1,inconclusive: 85.1% [activator],–
CC(=O)c1ccc(N2CCN(C(=O)Cn3ncc4c3-c3ccccc3OC4)CC2)cc1,–,"inconclusive [activator, single point]"
O=C(NCCC1=CCCCC1)c1ccc2c(c1)N(Cc1ccc(Cl)cc1)C(=O)c1ccccc1S2=O (stereo unspecified),–,"inconclusive [activator, single point]"
CCOC(=O)c1cccc(NC(=O)c2ccc3snnc3c2)c1,inactive: -4.2%,–
COC(=O)c1cccc(CN2C(=O)SC(Nc3ccc(Br)cc3)C2=O)c1 (stereo unspecified),–,"inconclusive [activator, single point]"
COc1ccc(-c2cc3nc(C)c(CCC(=O)N4CCN(c5cc(C)ccc5C)CC4)c(C)n3n2)c(OC)c1,–,"inconclusive [activator, single point]"
Cc1cccc2cc(C#N)c(NCCCNS(=O)(=O)c3ccc(Cl)cc3)nc12,inconclusive: 91% [activator],–
CCOC(=O)c1c(NC(=O)/C=C/c2ccc(OCC)cc2)sc2c1CCCC2,inactive: 8.22%,–
O=C(CCC1N=C2c3ccccc3N=C(SCc3ccc(F)cc3)N2C1=O)NC1CCCCC1 (stereo unspecified),–,"inconclusive [activator, partial curve]"
CCOc1ccc(-n2nc(CO)c(C(=O)NCc3cccc(OC)c3)n2)cc1,inactive: 9.66%,–
CCC(=O)Nc1sc2c(c1C(=O)Nc1cccc(C)c1)CCCC2,–,"inconclusive [activator, single point]"
